SMILES strings stand for the structures. Where “and” joins values, the source holds several entries; their conditions need not be identical. Equal values may be shown once. This is one part of the list. The main result of the screen is listed elsewhere. These columns were measured beside it and carry no call.

30 compounds from PubChem BioAssay AID1745853 (National Center for Advancing Translational Sciences (NCATS), 2022) can be followed below.

Experiment in all cases: Primary Screen for Target Class Profiling of Small Molecule Inhibitors of Methyltransferases
In experiment [1] the target is Glycine N-methyltransferase (Homo sapiens) (UniProt Q14749). The following applies: purified enzyme, MTase-Glo SAH luminescence; measured here: GNMT inhibition; at 40 µM; stronger effect = lower value. The method in brief: (§1)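 Each enzyme was reacted with SAM and its substrate, with compounds tested once at 40 uM; SAH formed was read by MTase-Glo luminescence.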
Experiment [2] concerns the target Guanidinoacetate N-methyltransferase (Homo sapiens) (UniProt Q14353). The following applies: purified enzyme, MTase-Glo SAH luminescence; measured here: GAMT inhibition; at 40 µM; stronger effect = lower value. The method, boiled down: as §1
Experiment [3] has as its target Histamine N-methyltransferase (Homo sapiens) (UniProt P50135). The settings on record: purified enzyme, MTase-Glo SAH luminescence; measured here: HNMT inhibition; at 40 µM; stronger effect = lower value. The method, boiled down:
as §1

The target of experiment [4] is Nicotinamide N-methyltransferase (Homo sapiens) (UniProt P40261). The settings on record: purified enzyme, MTase-Glo SAH luminescence; measured here: NNMT inhibition; at 40 µM; stronger effect = lower value. The method in brief: as §1
The target of experiment [5] is Phenylethanolamine N-methyltransferase (Homo sapiens) (UniProt P11086). The settings on record: purified enzyme, MTase-Glo SAH luminescence; measured here: PNMT inhibition; at 40 µM; stronger effect = lower value. The method, boiled down:
as §1
On the % scale 0 is the no-effect control and ±100 the full control effect.

`COc1ccc(OC)c2c1cc1n2CC(C)(C(=O)NC2CCCCCC2)N(Cc2cccs2)C1=O` (stereo not given): the activity change, negative = inhibition is 2.23% in experiment [1]; 0.329% in experiment [2]; 2.75% in experiment [3]; -4.69% in experiment [4]; -0.434% in experiment [5].

As to `O=C(NCc1ccco1)C1CC(c2ccccc2)CN(C(=O)Nc2ccc(Cl)cc2)C1` (stereo not given), the activity change, negative = inhibition in experiment [1] is -8.67%; in experiment [2] it was -9.8%; in experiment [3], -4.47%; in experiment [4] it was -9.24%; in experiment [5], -4.44%.

In the case of `Cc1ccc(Cn2c(=O)c3ccccc3n3c(SCC(=O)Nc4ccc(F)cc4F)nnc23)cc1`, the activity change, negative = inhibition was -2.93% in experiment [1]; 3.84% in experiment [2]; 4.09% in experiment [3]; -6.84% in experiment [4]; -1.1% in experiment [5].

Take `CN1CCC2(CCC1=O)CN(C(=O)c1ccc(Cn3cccn3)o1)CCN2C` (stereo not given): the activity change, negative = inhibition is -7.08% in experiment [1]; -12% in experiment [2]; -4.88% in experiment [3]; -20.1% in experiment [4]; -15.5% in experiment [5].

For `CN1C(=O)c2cc(C(=O)NCc3ccco3)nn2CC1(C)C(=O)NC1CCCCC1` (stereo not given), the activity change, negative = inhibition in experiment [1] worked out at 1.06%; in experiment [2], 4.49%; in experiment [3], 3.59%; in experiment [4], 6.46%; in experiment [5], 2.25%.

Regarding `O=C(CCc1nnc2n(Cc3ccccc3)c(=O)c3ccccc3n12)NCc1ccccc1Cl`, the activity change, negative = inhibition is -8.97% in experiment [1]; 3.03% in experiment [2]; 1.58% in experiment [3]; 0.865% in experiment [4]; -3.06% in experiment [5].

For the compound `CCOC(=O)C1=CN(CC(=O)Nc2ccccc2C(F)(F)F)S(=O)(=O)N=C1C`, the activity change, negative = inhibition in experiment [1] is -1.9%; in experiment [2], 0.045%; in experiment [3], 0.741%; in experiment [4], 2.21%; in experiment [5] it was 1.53%.

Take `COCCNC(=O)CCc1nnc2n(CCc3ccccc3)c(=O)c3ccccc3n12`: the activity change, negative = inhibition was -9.4% in experiment [1]; 0.128% in experiment [2]; 11% in experiment [3]; 15.3% in experiment [4]; 4.4% in experiment [5].

Take `C=C(C)C1CC2(CO)C(=CC1=O)CCC(O)C2C` (stereo not given): the activity change, negative = inhibition in experiment [1] is 0%; in experiment [2], 1.55%; in experiment [3] it was 8.37%; in experiment [4] it was -8.46%; in experiment [5], 2.77%.

`CC1(c2noc(-c3cccnc3)n2)CCN(C(=O)CCC(=O)n2ncc3c(Cl)cccc32)CC1`: the activity change, negative = inhibition was -0.211% in experiment [1]; -0.88% in experiment [2]; 1.76% in experiment [3]; 0.593% in experiment [4]; -3.12% in experiment [5].

For `COc1cccc(N2C(=O)c3cc(C(C)(C)C)nn3CC2(C)C(=O)NC2CCCCCC2)c1` (stereo not given), the activity change, negative = inhibition amounted to 4.42% in experiment [1]; 1.8% in experiment [2]; 9.1% in experiment [3]; 3.53% in experiment [4]; 3.56% in experiment [5].

In the case of `Cc1noc(-c2ccco2)c1C(=O)NC(C)c1ccccc1` (stereo not given), the activity change, negative = inhibition in experiment [1] is -0.271%; in experiment [2] it was 2.21%; in experiment [3] it was 0.862%; in experiment [4], -7.98%; in experiment [5] it was 8.06%.

For the compound `CC(C)CCn1c(=O)c2ccc(C(=O)NC(C)C)cc2n2c(=O)n(Cc3c(F)cccc3Cl)nc12`, the activity change, negative = inhibition in experiment [1] was 1.91%; in experiment [2] it was 6.77%; in experiment [3], 0.805%; in experiment [4], -0.867%; in experiment [5], -0.461%.

As for `CC(NC(=O)c1ccc2c(=O)nc3c(-c4ccccc4)n[nH]n3c2c1)c1ccccc1` (stereo not given), the activity change, negative = inhibition was -8.25% in experiment [1]; -2.27% in experiment [2]; -5.04% in experiment [3]; -1.89% in experiment [4]; -7.83% in experiment [5].

Take `Cc1cc(C(=O)N2C[C@@H](CN3CCCCCC3)[C@@H](CO)C2)nc(C)n1`: the activity change, negative = inhibition in experiment [1] was -3.33%; in experiment [2], 3.07%; in experiment [3] it was -12.6%; in experiment [4], 0.684%; in experiment [5], 13.6%.

For `COc1cccc(Cn2nc3n(C(C)C)c(=O)c4ccc(C(=O)NC5CCCC5)cc4n3c2=O)c1`, the activity change, negative = inhibition came to 2.8% in experiment [1]; 0.131% in experiment [2]; 9.31% in experiment [3]; 0.931% in experiment [4]; 5.28% in experiment [5].

For `CCn1cc(S(=O)(=O)N2C[C@@H](Oc3ccccc3)C[C@H]2C(=O)N2CCCC2)cn1`, the activity change, negative = inhibition is -0.77% in experiment [1]; -1.5% in experiment [2]; 2.5% in experiment [3]; -5.21% in experiment [4]; -8.89% in experiment [5].

As to `Cc1cc(C)cc(NC(=O)Cn2c(=O)oc3cc(S(=O)(=O)N4CC(C)CC(C)C4)ccc32)c1` (stereo not given), the activity change, negative = inhibition in experiment [1] was 0.064%; in experiment [2], 2.25%; in experiment [3], -0.258%; in experiment [4], 2.25%; in experiment [5] it was -20.1%.

Consider `O=c1ccn([C@@H]2O[C@H](COP(=O)(O)OP(=O)(O)O)[C@@H](O)[C@H]2O)c(=O)[nH]1`, for which the activity change, negative = inhibition was 11.2% in experiment [1]; 12.7% in experiment [2]; 13.5% in experiment [3]; -6% in experiment [4]; -0.144% in experiment [5].

`O=[S+]([O-])(c1ccccc1)N1CC2(CCCCN2Cc2cccnc2)Cc2ccccc21` (stereo not given): the activity change, negative = inhibition in experiment [1] is -7.72%; in experiment [2], -1.8%; in experiment [3] it was -5.09%; in experiment [4], -12.6%; in experiment [5], 10.6%.

As to `CC(C(O)c1ccc(O)cc1)N1CCC(Cc2ccccc2)CC1` (stereo not given), the activity change, negative = inhibition in experiment [1] is -5.28% and 1.43%; in experiment [2], -5.24% and 7.53%; in experiment [3], -6.49% and -11.6%; in experiment [4] it was -11.3% and -10.8%; in experiment [5] it was -5.63% and -2.95%.

On to `CN(CC1CCOC1)S(=O)(=O)c1cccs1` (stereo not given), for which the activity change, negative = inhibition in experiment [1] was -3.55%; in experiment [2], -2.46%; in experiment [3], -1.83%; in experiment [4], -8.33%; in experiment [5] it was -4.3%.

Consider `Cc1ccccc1-n1cc(CNC(=O)C(c2cccc(F)c2)N(C)C)cn1` (stereo not given), for which the activity change, negative = inhibition is -0.461% in experiment [1]; -1.54% in experiment [2]; 0.767% in experiment [3]; -1.39% in experiment [4]; 1.27% in experiment [5].

Turning to `Cc1ccc(C(C)NC(=O)CN2C(=O)C3(CCNCC3)Nc3ccccc32)cc1` (stereo not given), the activity change, negative = inhibition in experiment [1] is -5.87%; in experiment [2] it was -8.86%; in experiment [3] it was -5.88%; in experiment [4], -17.7%; in experiment [5], -24.5%.

With `CCOC(=O)c1cc2n(n1)CC(C)(C(=O)NC1CCCCCC1)N(c1cccc(Cl)c1)C2=O` (stereo not given), the activity change, negative = inhibition in experiment [1] is 6.17%; in experiment [2], 0%; in experiment [3], -1.28%; in experiment [4], 1.51%; in experiment [5], 7.64%.

Turning to `COc1ccc(C(=O)CSc2nnc3n(CC(C)C)c(=O)c4ccc(C(=O)NC(C)C)cc4n23)cc1`, the activity change, negative = inhibition is 3.84% in experiment [1]; 2.91% in experiment [2]; -3.11% in experiment [3]; 0.525% in experiment [4]; 2.98% in experiment [5].

With `CCCn1c(=O)c(C)cn2nc(N)nc12`, the activity change, negative = inhibition in experiment [1] is -3.46%; in experiment [2], 7.9%; in experiment [3] it was 1.47%; in experiment [4] it was -0.962%; in experiment [5] it was 9.2%.

For the compound `O=C(Nc1ccnn1C1CCN(Cc2ccc(-c3ccccc3)cc2)CC1)C1CC1`, the activity change, negative = inhibition in experiment [1] is -3.15%; in experiment [2], -1.32%; in experiment [3], -2.55%; in experiment [4] it was -2.95%; in experiment [5], -1.41%.

For the compound `Cc1ccc(CNC(=O)c2ccc3c(=O)nc4c(-c5ccccc5F)n[nH]n4c3c2)cc1`, the activity change, negative = inhibition was -21.1% in experiment [1]; 2.29% in experiment [2]; 2.54% in experiment [3]; 5.58% in experiment [4]; -0.234% in experiment [5].

As for `COc1cccc(NS(=O)(=O)c2ccc3[nH]c(=O)[nH]c3c2)c1`, the activity change, negative = inhibition is 3.25% in experiment [1]; 2.42% in experiment [2]; 3.55% in experiment [3]; -2.63% in experiment [4]; -13.3% in experiment [5].
